This is an account of results in the supplement of paper PMC10600219.

Structures can show the parent of a compound that is named as a salt. ± gives the standard deviation of the averaged measurements. Whole data set: some 2,800 compounds, median “cell viability relative to vehicle” near 0.98, cut for the lowest 2% near 0.45. The list shows a part of the results.

This test has as its system NCI-H2228 alectinib-DTP. In words: cell viability relative to vehicle (fraction of vehicle); NCI-H2228 is an ALK-positive lung cancer line and DTP means drug-tolerant persister; higher = less growth inhibition. The following applies: 100 nM; treatment time 6 days. The gist of the method:
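Parental NCI-H2228 cells and drug-tolerant persister cells (made with 1000 nM of a targeted drug for 13 days) were seeded in 384-well plates. The next day, the 3114-agent TargetMol anti-cancer compound library was added at 100 nM, with DMSO as vehicle. After 6 days, ATP was read with the CellTiter-Glo 3D Cell Viability Assay. Each value is cell viability relative to vehicle-treated cells.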
Molecule `O=C(N[C@H]1CN2CCC1CC2)c1ccc(Cl)cc1` came in with a cell viability of 0.931.
The value for `CC[C@H]1CN2CC[C@H]1C[C@@H]2[C@@H](O)c1ccnc2ccc(OC)cc12` [Hydroquinidine] was 0.987; that for `COc1ccc(/C=C/c2cc(OC)cc(OC)c2)cc1` [Trimethoxystilbene] was 0.876; that for `C=CC[C@]1(O)CC[C@H]2[C@@H]3CCC4=CCCC[C@@H]4[C@H]3CC[C@@]21C` [Allylestrenol] was 0.995.
Next, `NCC(CC(=O)O)c1ccccc1` (centres undefined) [Phenibut]: 1.03.
The molecule `NCCc1ccc(S(=O)(=O)F)cc1` [AEBSF hydrochloride] had a cell viability of 1.05.
The value for `CN1[C@@H]2CC[C@H]1C[C@@H](OC(=O)[C@H](CO)c1ccccc1)C2` [L-Hyoscyamine] was 1; that for `CCC(C)C(=O)O[C@@H]1[C@@H](OC(C)=O)[C@]2(C)[C@H](C(C)=O)CC[C@@]23O[C@]32CC[C@H]3C[C@@H](O[C@H]4C[C@@H](OC)[C@H](O[C@@H]5O[C@H](C)[C@@H](O)[C@@H](OC)[C@H]5O)[C@@H](C)O4)CC[C@]3(C)[C@@H]12` (some centres undefined) [Tenacissoside H] was 1.14.
The value for `C[C@]12CC[C@H](O)C[C@H]1CC[C@@H]1[C@@H]2CC[C@]2(C)[C@@H](c3ccc(=O)oc3)CC[C@]12O` [Bufalin] was 0.101; that for `CC(C)N(CCC(C(N)=O)(c1ccccc1)c1ccccn1)C(C)C` (centres undefined) [Disopyramide] was 0.95; that for `C[C@@]12C[C@@H](c3ccoc3)OC(=O)[C@@H]1CC[C@]1(C)[C@H]2[C@@H]2C=C[C@@]1(O)C(=O)O2` [Columbin] was 1.21.
Turning to `CCO[C@H]1O[C@@H]2O[C@@]3(C)CC[C@H]4[C@H](C)CC[C@@H]([C@H]1C)[C@@]24OO3` [Arteether], the cell viability came to 0.856.
Next, `CC(C)=CCOc1c2occc2cc2ccc(=O)oc12` [Imperatorin]: 0.925.
For `N[C@@H](Cc1ccc(N(CCCl)CCCl)cc1)C(=O)O` [Melphalan], the cell viability amounted to 0.917.
Consider `CCCC[N+]1(C)[C@@H]2C[C@@H](OC(=O)[C@H](CO)c3ccccc3)C[C@H]1[C@@H]1O[C@@H]12` (some centres undefined) [Scopolamine butylbromide], for which the cell viability was 0.906.
`S=C=NCc1ccccc1` [Benzyl isothiocyanate]: the cell viability came out at 1.13.
On to `Cc1cccc(C)c1NC(=O)CN1CCCC1=O` [Nefiracetam], for which the cell viability stood at 1.17.
The value for `C=CCN1CC[C@]23c4c5ccc(O)c4O[C@H]2C(=O)CC[C@@]3(O)[C@H]1C5` [Naloxone hydrochloride] was 0.907; that for `C[C@@H]1CC[C@@]2(OC1)O[C@H]1C[C@H]3[C@@H]4CC=C5C[C@@H](O[C@@H]6O[C@H](CO)[C@@H](O[C@@H]7O[C@@H](C)[C@H](O)[C@@H](O)[C@H]7O)[C@H](O)[C@H]6O[C@@H]6O[C@@H](C)[C@H](O)[C@@H](O)[C@H]6O)CC[C@]5(C)[C@H]4CC[C@]3(C)[C@H]1[C@@H]2C` [Dioscin] was 0.873; that for `Cn1cc(C2=C(c3cn(C4CCN(Cc5ccccn5)CC4)c4ccccc34)C(=O)NC2=O)c2ccccc21` [Enzastaurin] was 1.01.
Consider `NC(=O)c1cc(N2CC2)c([N+](=O)[O-])cc1[N+](=O)[O-]` [Tretazicar], for which the cell viability turned out to be 0.945.
As for `CC(=O)O[C@H]1C[C@@H]2CC[C@@H]3[C@H](CC[C@@]4(C)[C@H]3C[C@H]([N+]3(C)CCCCC3)[C@@H]4OC(C)=O)[C@@]2(C)C[C@@H]1[N+]1(C)CCCCC1` [Pancuronium bromide], the cell viability was 1.06.
`C[N+]1([O-])[C@@H]2CC(OC(=O)[C@H](CO)c3ccccc3)C[C@H]1[C@@H]1O[C@@H]12` (some centres undefined) [Scopolamine N-oxide HBr] returned a cell viability of 1.07.
The value for `CN1Cc2c(ccc3c2OCO3)[C@@H]2[C@H]1c1cc3c(cc1C[C@@H]2O)OCO3` [Chelidonine] was 0.955; that for `CC1(C)C(C(=O)Nc2ccc(S(=O)(=O)c3ccc(NC(=O)C4C(C)(C)C4(C)C)cc3)cc2)C1(C)C` was 0.828; that for `C[C@]12CC[C@@H]3c4ccc(OC(=O)N(CCCl)CCCl)cc4CC[C@H]3[C@@H]1CC[C@@H]2OP(=O)(O)O` [Estramustine phosphate sodium] was 1.08.
For `COc1cc2cc(c1Cl)N(C)C(=O)C[C@H](OC(=O)C(C)C)[C@]1(C)O[C@@H]1[C@H](C)[C@@H]1C[C@@](O)(NC(=O)O1)[C@H](OC)/C=C/C=C(\C)C2` [Ansamitocin P-3], the cell viability was found to be 0.499.
Molecule `COC(=O)[C@@H](N)CCCNC(=N)N[N+](=O)[O-]` [L-NAME hydrochloride] had a cell viability of 1.08.
The molecule `O=c1ccc2cc(O[C@@H]3O[C@H](CO)[C@@H](O)[C@H](O)[C@H]3O)c(O)cc2o1` [Esculin] showed a cell viability of 0.855.
`Cc1ccc(/N=C/N(C)/C=N/c2ccc(C)cc2C)c(C)c1` [Amitraz] had a cell viability of 0.902.
The value for `NCC(CC(=O)O)c1ccc(Cl)cc1` (centres undefined) [Baclofen] was 1.09; that for `CC(=O)O[C@H]1CC[C@H]2[C@@H]3CCC4=CC(=O)CCC4=C3C=C[C@]12C` [Trenbolone acetate] was 1.15.
Next, `CC(C)[C@]12O[C@H]1[C@@H]1O[C@]13[C@]1(O[C@H]1C[C@H]1C4=C(CC[C@@]13C)C(=O)OC4)[C@@H]2O` [Triptolide]: 0.133.
Next, `NC[C@H](CC(=O)O)c1ccc(Cl)cc1` [(R)-baclofen]: 1.07; `CC(C)(C)c1cc(C=C(C#N)C#N)cc(Br)c1O`: 0.934; `CC(C)=CCC[C@](C)(O)[C@H]1CC[C@]2(C)[C@@H]1[C@H](O)C[C@@H]1[C@@]3(C)CC[C@H](O[C@@H]4O[C@H](CO)[C@@H](O)[C@H](O)[C@H]4O)C(C)(C)[C@@H]3CC[C@]12C` [Ginsenoside Rh2]: 0.96 ± 0.11.
The molecule `CC(NC(C)(C)C)C(=O)c1cccc(Cl)c1` (centres undefined) [Bupropion hydrochloride] showed a cell viability of 0.907.
Next, `Cn1c(CCCC(=O)O)nc2cc(N(CCCl)CCCl)ccc21` [Bendamustine hydrochloride]: 1.15; `CC1=C2C(=O)[C@H]3[C@@H](CC=C4C[C@@H](O)CC[C@@]43C)[C@@H]2CC[C@]12O[C@@H]1C[C@H](C)CN[C@H]1[C@H]2C` [Jervine]: 0.899; `O=C1CC[C@@]2(O)[C@H]3Cc4ccc(O)c5c4[C@@]2(CCN3CC2CC2)[C@H]1O5` [Naltrexone hydrochloride]: 0.865.
As for `COc1ccc2c(c1O)-c1c(OC)c(OC)cc3c1[C@H](C2)N(C)CC3` [(+)-Isocorydine hydrochloride], the cell viability was found to be 0.9.
As for `CC1(C)C(=O)N(c2ccc(C#N)c(C(F)(F)F)c2)C(=O)N1CCCCO`, the cell viability was 1.23.
Next, `Clc1ccc(OC[C@H]2CCN2)cn1` [Tebanicline hydrochloride]: 0.94; `N[C@@H]1C[C@H]1c1ccccc1` [Tranylcypromine (2-PCPA) hydrochloride]: 1.12.
Next, `Cc1sc2c(c1C)C(c1ccc(Cl)cc1)=N[C@@H](CC(N)=O)c1nnc(C)n1-2`: 0.76; `CN1[C@@H]2C[C@@H](OC(=O)[C@H](CO)c3ccccc3)C[C@H]1[C@@H]1O[C@@H]12` [Scopolamine HBr]: 0.901; `COc1ccc(N(C(=O)Oc2c(C)cccc2C)c2ccnc(Nc3ccc(N4CCN(C)CC4)cc3)n2)c(OC)c1`: 0.944.
In the case of `COC1=C[C@@H]2[C@@H]3Cc4ccc(OC)c(O)c4[C@]2(CCN3C)CC1=O` [Sinomenine hydrochloride], the cell viability stood at 1.04.
Next, `C/C(=C\c1csc(C)n1)[C@@H]1C[C@@H]2O[C@@H]2CCC[C@H](C)[C@H](O)[C@@H](C)C(=O)C(C)(C)[C@@H](O)CC(=O)O1` [Epothilone A]: 0.529.
Consider `CC(O)(CS(=O)(=O)c1ccc(F)cc1)C(=O)Nc1ccc(C#N)c(C(F)(F)F)c1` (centres undefined) [Bicalutamide], for which the cell viability was 1.21.
As to `CN1CCc2cc3c(cc2C1C1OC(=O)c2c1ccc1c2OCO1)OCO3` (single isomer, unassigned; (+)) [(+)-Bicuculline], the cell viability came out at 0.971.
Regarding `CCOC(=O)c1cncn1[C@H](C)c1ccccc1` [Etomidate], the cell viability amounted to 1.11.
The value for `CNC(=O)Oc1cccc2ccccc12` [Carbaryl] was 0.911; that for `O=C([O-])C(Cl)Cl.[Na+]` [Sodium Dichloroacetate] was 1.11; that for `CO[C@H]1C[C@H](O[C@H]2CC[C@]3(C)[C@H]4CC[C@]5(C)[C@@H](C6=CC(=O)OC6)CC[C@]5(O)[C@@H]4CC[C@]3(O)C2)O[C@H](C)[C@H]1O[C@@H]1O[C@H](CO)[C@@H](O)[C@H](O)[C@H]1O` [Periplocin] was 0.443.
The value for `NCC1(CC(=O)O)CCCCC1` [Gabapentin] was 1.13.
The value for `O=c1cccc2n1C[C@@H]1CNC[C@H]2C1` [Cytisine] was 1.18; that for `CC(=O)O[C@H]1C(=O)[C@@]2(C)[C@H]([C@H](OC(=O)c3ccccc3)[C@]3(O)C[C@H](O)C(C)=C1C3(C)C)[C@]1(OC(C)=O)CO[C@@H]1C[C@@H]2O` [Baccatin III] was 1.
Turning to `C[C@]12CC[C@H](O)C[C@H]1CC[C@@H]1[C@@H]2CC[C@]2(C)[C@@H](c3ccc(=O)oc3)C[C@H]3O[C@]132` [Resibufogenin], the cell viability is 1.07.
Next, `CC(C)(C)c1cc(C=C(C#N)C#N)cc(C(C)(C)C)c1O` [Tyrphostin 9]: 0.865; `O=C(O)c1nn(Cc2ccc(Cl)cc2Cl)c2ccccc12` [Lonidamine]: 0.991.
`N#C[C@H](O[C@@H]1O[C@H](CO[C@@H]2O[C@H](CO)[C@@H](O)[C@H](O)[C@H]2O)[C@@H](O)[C@H](O)[C@H]1O)c1ccccc1` [Amygdalin] showed a cell viability of 0.879.
As to `COc1cc2c(c(OC)c1OC)-c1ccc(OC)c(=O)cc1[C@@H](NC(C)=O)CC2` [Colchicine], the cell viability came out at 0.604.
Next, `CN(C(=O)/C=C/c1ccoc1)[C@@H]1CC[C@@]2(O)[C@H]3Cc4ccc(O)c5c4[C@@]2(CCN3CC2CC2)[C@H]1O5` [Nalfurafine hydrochloride]: 0.992.
